Measurements reported in PubChem BioAssay AID652104 (National Center for Advancing Translational Sciences (NCATS), 2013).
The whole screen tested about 410,000 compounds, of which about 7,200 (1.8%) were called active. Inconclusive results, whose numbers are uncertain, are shown with a selection of clear calls. Calls follow the shape of the dose curve; as a rule, active = well fitted activation curve with a large enough effect; inconclusive = small, poorly fitted or top-dose-only effect, or another doubt; inactive = no such curve, though single readings can be large or run the other way. Where the call is inconclusive, the potency comes from a doubtful curve fit.

Experiment: qHTS of TDP-43 Inhibitors; also: nearly all actives have a fitted effect of over 50% in size; as to growth rescue (activation): % of control where 0% means no effect
Settings: TDP-43 expressing yeast growth rescue, BacTiter-Glo, 24 h; growth rescue (activation): at 46.1 µM (top of the series) unless noted
Method in brief: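 Growth rescue of TDP-43-toxic yeast measured as ATP luminescence (BacTiter-Glo). Cells grown to mid-log in raffinose, induced in galactose at OD600=0.02, exposed to compound 24 hr at 30 deg C.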
Potency is read from the fitted curve at half-maximal effect; tags tell the direction and shape of the fitted curve.

Potency, inconclusive:
CCC(C)Sc1ccc([C@H]2N[C@@](Cc3ccccc3)(C(=O)OC)[C@H]3C(=O)N(CC)C(=O)[C@@H]23)cc1 (some centres undefined) 3.98 µM [activator, partial curve]
Cc1cc(Cl)ccc1OCC(=O)N1CC(C)CC(C)C1 (centres undefined) 25.1 µM [activator, single point]
S=c1[nH]nc(Nc2cccc3ccccc23)s1 20 µM [activator, single point]
CN(C)C(=S)SCC(=O)Nc1ccc(Cl)cc1Cl 14.1 µM [activator, partial curve]
Cc1cc2c(c(=O)n1CC1CCCO1)C(c1ccco1)C(C#N)=C(N)O2 (centres undefined) 1.58 µM [activator, partial curve]
COc1ccc(S(=O)(=O)N2CCC(C(=O)Nc3cc(C(F)(F)F)ccc3Cl)CC2)cc1 35.5 µM [activator, partial curve]
Cc1ccccc1-c1ccc(C(=O)Nc2cccc(F)c2)o1 35.5 µM [activator, partial curve, poor fit]
CCN1CCC2(CC1)N=C(c1ccc(F)cc1)C(=S)N2C(=O)c1ccc(C(C)(C)C)cc1 2.24 µM [activator, full curve]
CCOc1cc(-c2ccc(OC(=O)c3ccccc3)c(OC)c2)cc(=O)c2c(C)oc(C)c12 17.8 µM [activator, single point]
Oc1ccccc1-c1cc(-c2ccc(Cl)cc2)n[nH]1 17.8 µM [activator, single point]
Cc1cc(C)nc(SCc2ccc(Br)cc2)n1 11.2 µM [activator, single point]
C=CCNc1nc2ccccc2nc1NS(=O)(=O)c1ccc(Cl)cc1 35.5 µM [activator, single point]
Cc1ccc(OCC(=O)NNC(=O)CCC(=O)Nc2ccc(C)cc2C)cc1 0.562 µM [activator, partial curve, poor fit]
COc1cnc(-c2ccccn2)nc1Oc1ccc(Cl)c2ccccc12 3.55 µM [activator, single point]
CNc1ncnc2sc(-c3ccccc3)cc12 35.5 µM [activator, single point]
CC1CC(C)CN(CCCNC(=O)CCC(=O)N2CCOc3ccccc32)C1 (centres undefined) 35.5 µM [activator, single point]
N#Cc1ccc(Oc2c(Cl)cncc2Cl)cc1 15.8 µM [activator, single point]
Cc1nc(SCc2ccc(C(=O)O)cc2)nc2c1CCCC2 25.1 µM [activator, single point]
CN(CCc1ccccc1)C(=O)c1cc(COc2cccc(C(F)(F)F)c2)on1 25.1 µM [activator, single point]
O=C(Nc1nc2c(F)cccc2s1)c1ccco1 20 µM [activator, partial curve]
CC(=O)c1cccc(NC(=O)C2Cc3c(-c4ccccc4Oc4ccccc4)ccnc3O2)c1 (centres undefined) 12.6 µM [activator, single point]
Cc1sc(NC(=O)CCl)c(C(=O)c2ccccc2)c1C 17.8 µM [activator, single point]
CCOc1ccc(NCc2nc3ccccc3n2CCOc2ccc(C)cc2)cc1 35.5 µM [activator, partial curve, poor fit]
Cc1nc2sccn2c(=O)c1S(=O)(=O)Nc1cc(C(F)(F)F)ccc1Cl 3.55 µM [activator, partial curve]
O=c1cc(CN2CCN(c3ccc(Cl)c(Cl)c3)CC2)c2ccccc2o1 10 µM [activator, partial curve]
CCOC(=O)/C(=C/C=C1\Sc2cc(C)c(C)cc2N1CC)C(C)=O 15.8 µM [activator, single point]
O=C(Nc1ccc(Cl)cc1)C1CCCCN1S(=O)(=O)c1ccccc1 (centres undefined) 31.6 µM [activator, single point]
Cc1ccc(CCNC(=O)CN(c2ccc(C)cc2)S(=O)(=O)N(C)C)cc1 35.5 µM [activator, single point]
Cc1cc(C)c(OCC(=O)OC(C)C(=O)NCc2ccccc2)c(C)c1 (centres undefined) 3.55 µM [activator, partial curve]
Cc1ccc(CC2CC(=O)N(c3cc(C)on3)C2=O)cc1 (centres undefined) 35.5 µM [activator, partial curve]
COc1ccccc1N1CCN(C(=O)CSc2ncnc3scc(-c4ccccc4)c23)CC1 35.5 µM [activator, single point]

Potency, active:
CC(=O)c1ccccc1OCCn1nnc(-c2ccc(C)cc2)n1 25.1 µM
CCCCCn1cc2c(c1-c1ccccc1Br)c(=O)n(C)c(=O)n2C 17.8 µM
CC(=O)c1ccc(NC(=O)N2CCN(c3cccc(Cl)c3)CC2)cc1 12.6 µM

Growth rescue (activation), inconclusive:
Cc1nn(Cc2ccccc2Cl)c(C)c1C(=O)Nc1nnc(C2CC2)s1 191% [activator]
Cc1cc(C)n(-c2nc3cc(Cl)ccc3nc2N2CCN(c3ccccc3F)CC2)n1 31.9% [activator]

Growth rescue (activation), inactive:
Cn1c(Oc2ccccc2)c(C=O)c2ccccc21 10.4%
O=C1CSC(=Nc2ccccc2Cl)N1 17.7%
Cc1cc(SCC(=O)NC2(C#N)CCCCC2)nc2c(C)cccc12 29.9%
CCOCCCn1c(SCC(=O)Nc2cccc(S(=O)(=O)NC3=NCCCCC3)c2)nc2ccccc2c1=O 16.9%
Nc1nc(N)c2cc(S(=O)(=O)c3ccc4ccccc4c3)ccc2n1 -4.7%
Cc1ccccc1OCCCCn1nnc2sc3c(c2c1=O)CCC(C)C3 (centres undefined) 15.6%
OCCN(CCO)c1nc2ccccc2[nH]1 -0.483%
COc1cccc2c1cc1c(=O)n(CC(=O)NCc3ccco3)nc(C)n12 2.55%
